Source: PubChem BioAssay AID504466 (National Center for Advancing Translational Sciences (NCATS), 2011)
The whole screen tested about 330,000 compounds, of which about 4,200 (1.3%) were called active. This list was built around the results that the source calls inconclusive (neither active nor inactive); the mix of calls is not that of the screen. Calls follow the shape of the dose curve; as a rule, active = well fitted activation curve with a large enough effect; inconclusive = small, poorly fitted or top-dose-only effect; inactive = no such curve, though single readings can be large or run the other way. A potency beside an inconclusive call is a rough fit, not a confirmed value.

Assay: qHTS screen for small molecules that induce genotoxicity in human embryonic kidney (HEK293T) cells expressing luciferase-tagged ELG1; also: nearly all actives have a fitted effect of over 60% in size; as to activity change, positive = activation: % of control where 0% means no effect
Settings: HEK293T ELG1-luciferase reporter, luminescence, 16 h; series mostly up to 46 µM; activity change, positive = activation: at the top concentration
Method in brief: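 HEK293T cells expressing luciferase-tagged ELG1 were treated with compound or DMSO for 16 hr at 37°C. Luciferase activity was then read after 30 min with ONE-Glo at room temperature; rising signal flags genetic stress.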
Potency is read from the fitted curve at half-maximal effect; tags tell the direction and shape of the fitted curve.

Q: With O=C(CC(=O)c1ccccc1)Nc1ccc2c(c1)OCCO2 as the compound, how does the Potency read?
A: Its Potency is inconclusive: 4.61 µM [activator, full curve, poor fit].

Q: With Cc1sc2ncnc(N3CCN(Cc4ccccc4)CC3)c2c1-c1ccc(F)cc1 as the compound, how does the “activity change, positive = activation” value read?
A: The value was inactive: -12.9%.

Q: For COc1ccccc1C(=O)Nc1cc(-c2ccc(C)cc2)no1, which Potency is on record?
A: Its Potency is inconclusive: 18.3 µM [activator, partial curve, poor fit].

Q: Which Potency does the source give for CN1N=C(C(=O)N2CCc3c([nH]c4ccccc34)C2c2c(F)cccc2Cl)CCC1=O (configuration not stated) here?
A: The Potency was inconclusive: 20.6 µM [activator, partial curve, poor fit].

Q: For O=[N+]([O-])c1ccc(Sc2ncccn2)c([N+](=O)[O-])c1, which Potency is on record?
A: The Potency was inconclusive: 23.1 µM [activator, single point].

Q: Which “activity change, positive = activation” value does the source give for O=C(NCCC1CCCCN1S(=O)(=O)c1cccs1)C(=O)Nc1ccccc1 (configuration not stated) here?
A: Its value is inactive: -3.33%.

Q: With Cc1ccc(C(=O)N2CC(C)SC2=Nc2cccc(S(=O)(=O)N(C)C)c2)cc1 (configuration not stated) as the compound, how does the “activity change, positive = activation” value read?
A: Its value is inactive: -4.61%.

Q: For O=C(O)c1ccccc1NCc1ccco1, which “activity change, positive = activation” value is on record?
A: Its value is inactive: 1.33%.

Q: For Cc1ccc(-c2cc(C(=O)N3CCCC3)no2)cc1, which Potency is on record?
A: The Potency was active: 0.231 µM.

Q: For CC(=O)c1cccc(Nc2nc(-c3ccccc3)cs2)c1, which Potency is on record?
A: Its Potency is inconclusive: 2.59 µM [activator, full curve].

Q: With Cn1c(CO)cnc1S(=O)(=O)Cc1c(Cl)cccc1Cl as the compound, how does the “activity change, positive = activation” value read?
A: Its value is inactive: -1.43%.

Q: For Cc1cc(N2C(=O)c3ccc(C(=O)Nc4ccc(CC(=O)O)cc4)cc3C2=O)no1, which “activity change, positive = activation” value is on record?
A: Its value is inactive: -0.814%.

Q: For O=C(CCNS(=O)(=O)c1ccc(Br)cc1)Nc1cccc(F)c1, which “activity change, positive = activation” value is on record?
A: The value was inactive: -3.88%.

Q: Which Potency does the source give for Cc1nnc2sc(-c3csc4c3CCCC4)nn12 here?
A: Its Potency is inconclusive: 29.1 µM [activator, single point].

Q: Which “activity change, positive = activation” value does the source give for COc1ccc(NC(=S)Nc2ccc(OC)cc2OC)c(OC)c1 here?
A: The value was inactive: -1.32%.

Q: With Cc1ccc(NC(=O)Nc2ncccc2C)cc1 as the compound, how does the “activity change, positive = activation” value read?
A: Its value is inactive: 28.4%.

Q: With O=C(Nc1ccc2c(c1)OCO2)C1COc2ccccc2O1 (configuration not stated) as the compound, how does the Potency read?
A: The Potency was inconclusive: 9.2 µM [activator, partial curve].

Q: With CNC(=O)CSc1nc2cccnc2n1-c1ccc(F)cc1 as the compound, how does the Potency read?
A: Its Potency is inconclusive: 29.1 µM [activator, single point].

Q: With CN(Cc1ccccc1)C(=O)c1ccc(NC(=O)Cc2cccc(NC(=O)C3CCCN(C(=O)C4CCCC4)C3)c2)cc1 (configuration not stated) as the compound, how does the “activity change, positive = activation” value read?
A: Its value is inactive: -4.05%.

Q: For O=C(Cn1nc(C(=O)O)c2ccccc2c1=O)Nc1ccc2c(c1)C(=O)c1ccccc1C2=O, which Potency is on record?
A: The Potency was inconclusive: 9.2 µM [activator, partial curve, poor fit].

Q: Which Potency does the source give for COc1ccccc1-c1nn2c(=O)cc(C)nc2s1 here?
A: The Potency was inconclusive: 10 µM [activator, partial curve, poor fit].

Q: With COc1ccc(C2C3=C(N=C4SCC(=O)N42)c2ccccc2CC3)cc1 (configuration not stated) as the compound, how does the Potency read?
A: Its Potency is inconclusive: 8.2 µM [activator, single point].
